# Measured values from PubChem BioAssay AID1240 (Sanford-Burnham Center for Chemical Genomics, 2008).
# Among all 50,000 compounds or so, about 800 (1.6%) showed an effect of 50% or more. This is one part of the list.
# Target: Bcl-2-like protein 10 (Homo sapiens) (UniProt Q9HD36)
# Assay: TR3 peptide-Bcl-B binding displacers, biochemical primary FP assay, phenotype converters (AID 1240);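 further: 0% = Bcl-B with tracer peptide and DMSO and 100% = tracer peptide lacking Bcl-B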
# Settings: GST-Bcl-B / FITC-TR3 peptide fluorescence polarization; stronger effect = higher value; compound at 3.75 mg/L
# Chain of UniProt Q9HD36 (Q9HD36 whole entry, looked up): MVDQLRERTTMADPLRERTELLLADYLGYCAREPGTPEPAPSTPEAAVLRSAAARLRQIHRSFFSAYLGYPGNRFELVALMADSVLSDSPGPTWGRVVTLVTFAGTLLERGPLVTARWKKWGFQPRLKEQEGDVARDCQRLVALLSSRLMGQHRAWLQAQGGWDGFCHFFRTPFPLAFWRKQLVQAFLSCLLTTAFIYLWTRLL
row,SMILES,displacement
1,CCCn1c(/N=C/c2cccs2)nc2ccccc21,6.8%
2,O=c1[nH]c(N2CCCCCC2)nc2ncn(Cc3ccccc3)c12,-2.9%
3,CC(C)Oc1ccccc1/C=C/c1nc(O)c([N+](=O)[O-])c(=O)[nH]1,-12.3%
4,O=C(Nc1ccc2c(c1)OCCO2)c1cc2ccccc2o1,-6.3%
5,Cc1ccc(Cc2cnc(NC(=O)c3ccccc3)s2)cc1,9.2%
6,COC(=O)c1ccccc1Nc1ccn2c(=O)c3ccccc3nc2n1,17.6%
7,COc1ccc(/C=C2\SC(N3CCCCCC3)=NC2=O)c(OC)c1,-4.9%
8,CC(=O)Nc1cccc(/C(C)=N/N=C2/NC(=O)C(CC(=O)Nc3ccc(Cl)cc3Cl)S2)c1 (centres undefined),-6.3%
9,CC1=NN(c2nc(-c3ccc(Br)cc3)cs2)C(=O)/C1=C\c1ccc2c(c1)OCO2,9%
10,Cc1cc(OCc2nc(-c3ccncc3)no2)ccc1Br,11.4%
11,N/C(=N\OC(=O)c1ccc(F)cc1)c1ccncc1,-16.6%
12,O=C(CSCc1ccc(Br)cc1)Nc1ccc(I)cc1,3.8%
13,CCOc1ccccc1/C=C1/SC(=S)N(NC(=O)c2ccccc2C)C1=O,1.4%
14,CCOC(=O)c1ccccc1NC(=O)c1cnn2c1NC(c1ccccc1)CC2C(F)(F)F (centres undefined),-3.1%
15,CCOC(=O)C1=C(C)N(C2CCCCC2)C(=O)C1,5.4%
16,COc1ccc(N(CC(=O)N2CCCC2)S(=O)(=O)c2ccc(C)cc2)c(OC)c1,-3.4%
17,CCCC(=O)c1ccc(N2CCN(C(=O)c3cccs3)CC2)c(F)c1,-2.9%
18,Cc1nn(C)c(C)c1Sc1ccc(Br)cc1,-8.7%
19,CCOC(=O)c1c(NC(=O)c2ccc(Cl)cc2)sc(C(=O)Nc2ccc3c(c2)OCO3)c1C,-8.9%
20,O=C1NC(=O)N(c2cccc(F)c2)C(=O)/C1=C/c1ccc(O)c(Cl)c1,8.3%
21,Cc1cc(-c2ccccc2)nc(N/N=C/c2c(O)ccc3ccccc23)n1,-11.6%
22,O=C(C1CCCO1)N1CCN(C(c2ccccc2)c2ccccc2)CC1 (centres undefined),-3%
23,Cc1[nH]n(-c2ccccc2)c(=O)c1C=Nc1cccc(Br)c1,-4.4%

row,SMILES,displacement
1,COc1ccc(C(=O)/C=C/c2ccco2)cc1OC,5.9%
2,O=C(NCCCn1ccnc1)C(=O)Nc1ccc(Br)cc1,11.6%
3,O=C(Nc1ccc(Cl)c(Cl)c1)C1C(c2ccccc2)C1(Cl)Cl (centres undefined),2.8%
4,O=C1/C(=C/c2cc3c(cc2[N+](=O)[O-])OCO3)Sc2ccccc21,1.5%
5,CC(C)(C)c1ccc(OCC(=O)NCCO)cc1,-0.3%
6,O=C(NCCCc1ccccc1)c1ccccc1,-1.3%
7,COCCNC(=O)c1cnn2c1NC(c1ccc(OC)c(OC)c1)CC2C(F)(F)F (centres undefined),-1.3%
8,CCOC(=O)C1=C(O)/C(=C/c2ccc(OC)c(OC)c2)SC1=Nc1ccc([N+](=O)[O-])cc1,22.8%
9,O=C(Oc1ccccc1C(=S)N1CCOCC1)c1ccc([N+](=O)[O-])cc1,14.4%
10,O=C(c1cccnc1)N1CCN(C(=O)c2ccccc2F)CC1,-0.4%
11,CC(CN1CCCCCC1)C(=O)c1ccccc1 (centres undefined),11.2%
12,O=C(Nc1ccc(NS(=O)(=O)c2ccc(Cl)cc2)cc1)c1ccccc1,1.7%
13,CCOc1ccc2cc(S(=O)(=O)n3nnc4ccccc43)ccc2c1,-6.7%
14,Cc1cc(OCC(=O)NCc2ccccc2)cc(C)c1Cl,10.6%
15,COc1cccc(/C=N/Nc2nc(N3CCCCC3)nc(N3CCCCC3)n2)c1,0.9%
16,Cc1cc(C)nc(NC(=O)C2C3C=CC(C3)C2C(=O)O)c1 (centres undefined),-2.3%
17,CCOC(=O)c1ccc(N2C(=O)CC(Sc3nc4ccc(OCC)cc4s3)C2=O)cc1 (centres undefined),-5.3%
18,Cc1c(NC(=O)c2cc(-c3ccc(Br)cc3)nc3ccccc23)c(=O)n(-c2ccccc2)n1C,-11%
19,Cc1ccc(C)c(NC2=NC3(CCCC3)N=C(N)N2)c1,-15.6%
20,COc1ccc(-n2nc3cc(C)c(NC(=O)c4ccc(Br)o4)cc3n2)cc1,117%
21,O=C1NC(=Nc2cccnc2)S/C1=C\c1ccc(F)cc1,3.5%
22,COC(=O)C1(C(=O)OC)C(CC(C)C)C1(C(=O)OC)C(=O)OC,15%
23,COc1ccc(/C=C/C(=O)c2cccs2)cc1[N+](=O)[O-],-11.9%

row,SMILES,displacement
1,CCOc1ccc(N(CC(=O)Nc2cccc(OC)c2)S(=O)(=O)c2ccc(SC)cc2)cc1,3.4%
2,CC(C)c1ccc(NC(=O)CN(c2ccc(Cl)cc2)S(C)(=O)=O)cc1,3%
3,O=c1[nH]c2ccccc2c(O)c1-c1cc2ccccc2oc1=O,4.4%
4,Cc1ccc(NC(=O)CN(c2ccc(Cl)cc2)S(C)(=O)=O)cc1C,-4.1%
5,O=C(NC1CCS(=O)(=O)C1)C12CC3CC(CC(C3)C1)C2 (centres undefined),4.5%
6,O=C(N/N=C/c1ccc(Cl)c([N+](=O)[O-])c1)c1ccccn1,3.3%
7,CS(=O)(=O)N(CC(=O)NC1CC1)c1ccc(Oc2ccccc2)cc1,-5.1%
8,O=C(CCCC(=O)Nc1nc2ccccc2s1)Nc1nc2ccccc2s1,-7.2%
9,O=C1N/C(=N\c2ccccn2)SC1Cc1ccccc1 (centres undefined),-6.4%
10,COc1cccc(-n2cnc3cccc(N)c32)c1,27.3%
11,Cc1cccn2c(=O)c(/C=C3\SC(=S)N(C(C)c4ccccc4)C3=O)c(NCCc3ccccc3)nc12 (centres undefined),14.1%
12,NC(=O)NC(=O)c1nc2ccccc2[nH]c1=O,11.6%
13,CC(C)(C)C(=O)Nc1cccc(C(=O)NCc2ccc(CNC(=O)c3cccc(NC(=O)C(C)(C)C)c3)cc2)c1,9.9%
14,CC(=O)c1ccc(NC(=O)CSCC(=O)Nc2ccc3ccccc3c2)cc1,14.3%
15,O=C1/C(=C/c2ccc(-c3ccc([N+](=O)[O-])cc3)o2)SC(=S)N1Cc1ccccc1,9.4%
16,COc1c(Cl)cc(C(=O)Nc2ccc3oc(-c4ccccc4)nc3c2)cc1Cl,12.6%
17,CC1=NN(c2cccc(C(=O)O)c2)C(=O)/C1=C\c1ccc(-c2ccc(Cl)c(C(=O)O)c2)o1,25.1%
18,CN1CCN(CCOCCOc2ccccc2Br)CC1,-11.5%
19,O=CNc1ccccc1Oc1ccccc1,10.4%
20,COc1cc2c(cc1NC(=O)c1ccccc1I)oc1ccccc12,-3.9%
21,COC(=O)/C(=C\C(=O)c1ccccc1)Nc1ccccc1,-11.5%
22,O=C(Nc1cc(Cl)cc(Cl)c1)c1ccc2ccccc2c1,4.9%
23,COCCN1C(=O)/C(=C\c2ccc3c(c2)OCO3)C(C(=O)OC)=C1C,-8%
